In paper PMC9694146, “Novel [1,2,4]triazolo[3,4-b][1,3,4]thiadiazine and [1,2,4]triazolo[3,4-b][1,3,4]thiadiazepine Derivatives: Synthesis, Anti-Viral In Vitro Study and Target Validation Activity” (Molecules, 2022):

Legend:
[1] = tested on: influenza A/Puerto Rico/8/34 (H1N1) virus; conditions: CC50 (MDCK) / IC50 (influenza A/Puerto Rico/8/34)
[2] = tested on: influenza A/Puerto Rico/8/34 (H1N1) virus; assay: organism not typed; conditions: MDCK, 72 h, read-out: IC50, effective concentration, the concentration resulting in 50% inhibition of virus replication, influenza virus A/Puerto Rico/8/34 in MDCK cells
[3] = tested on: influenza A/Puerto Rico/8/34 (H1N1) virus; assay: microbe, parasite or virus in culture; conditions: H1N1, MDCK, Table 3, repeated from Table 2 for comparison, unit inferred

SMILES | SI, selectivity index; ratio CC50/IC50 [1] | IC50 [2] [µM] | IC50 [3] [µM]
Sc1nncn1N=CC#Cc1ccccc1 [Compound 1a, 4-((3-phenylprop-2-yn-1-ylidene)amino)-4H-1,2,4-triazole-3-thiol] | 8 | 16.2 ± 2.1 | 16.2 ± 2.1
C1=C(c2ccccc2)Sc2nncn2NC1 [Compound 10a, 8-phenyl-5,6-dihydro-[1,2,4]triazolo[3,4-b][1,3,4]thiadiazepine] | >2 | 703 ± 82.9 | 703 ± 82.9
C1=Nn2cnnc2SC(c2ccccc2)=C1 [Compound 7a, 8-phenyl-[1,2,4]triazolo[3,4-b][1,3,4]thiadiazepine] | <3 | > 13 | > 13
CCc1nnc2n1NC/C(=C/c1ccccc1)S2 [Compound 8c, (Z)-7-benzylidene-3-ethyl-6,7-dihydro-5H-[1,2,4]triazolo[3,4-b][1,3,4]thiadiazine] | >23 | 50.3 ± 6.2 | 50.3 ± 6.2
Cc1nnc(S)n1NCC#Cc1ccccc1 [Compound 2b, 5-methyl-4-((3-phenylprop-2-yn-1-yl)amino)-4H-1,2,4-triazole-3-thiol] | >12 | 106 ± 12.5 | 106 ± 12.5
Cc1nnc2n1NCC=C(c1ccccc1)S2 [Compound 10b, 3-methyl-8-phenyl-5,6-dihydro-[1,2,4]triazolo[3,4-b][1,3,4]thiadiazepine] |  | 41.4 ± 5.1 | 41.4 ± 5.1
C(=C1\CNn2cnnc2S1)/c1ccccc1 [Compound 8a, (Z)-7-benzylidene-6,7-dihydro-5H-[1,2,4]triazolo[3,4-b][1,3,4]thiadiazine] |  | 39.5 ± 5.1 | 39.5 ± 5.1
CCC(CC)O[C@@H]1C=C(C(=O)O)C[C@H](N)[C@H]1NC(C)=O [Oseltamivir carboxylate, reference compound] | >588 | 0.17 ± 0.02 | 
CCc1nnc(S)n1NCC#Cc1ccccc1 [Compound 2c, 5-ethyl-4-((3-phenylprop-2-yn-1-yl)amino)-4H-1,2,4-triazole-3-thiol] | 13 | 37.2 ± 4.1 | 37.2 ± 4.1
CCc1nnc(S)n1N=CC#Cc1ccccc1 [Compound 1c, 5-ethyl-4-((3-phenylprop-2-yn-1-ylidene)amino)-4H-1,2,4-triazole-3-thiol] |  | 11.3 ± 2.2 | 11.3 ± 2.2
CCc1nnc2n1NCC=C(c1ccccc1)S2 [Compound 10c, 3-ethyl-8-phenyl-5,6-dihydro-[1,2,4]triazolo[3,4-b][1,3,4]thiadiazepine] | <3 | > 300 | > 300
C1=Nn2cnnc2S/C1=C\c1ccccc1 [Compound 6a, (Z)-7-benzylidene-7H-[1,2,4]triazolo[3,4-b][1,3,4]thiadiazine] |  | 34.2 ± 4.2 | 34.2 ± 4.2
CCCc1nnc(S)n1NCC#Cc1ccccc1 [Compound 2d, 5-propyl-4-((3-phenylprop-2-yn-1-yl)amino)-4H-1,2,4-triazole-3-thiol] | 1 | 101 ± 12.4 | 101 ± 12.4
CCc1nnc2n1N=CC=C(c1ccccc1)S2 [Compound 7c, 3-ethyl-8-phenyl-[1,2,4]triazolo[3,4-b][1,3,4]thiadiazepine] | <2 | > 3 | > 3
CCCc1nnc2n1N=C/C(=C/c1ccccc1)S2 [Compound 6d, (Z)-7-benzylidene-3-propyl-7H-[1,2,4]triazolo[3,4-b][1,3,4]thiadiazine] |  | 34 | 33.6 ± 4.4
CCCc1nnc2n1NC/C(=C/c1ccccc1)S2 [Compound 8d, (Z)-7-benzylidene-3-propyl-6,7-dihydro-5H-[1,2,4]triazolo[3,4-b][1,3,4]thiadiazine] | >19 | 58 ± 6.6 | 58 ± 6.6
Cc1nnc2n1N=C/C(=C/c1ccccc1)S2 [Compound 6b, (Z)-7-benzylidene-3-methyl-7H-[1,2,4]triazolo[3,4-b][1,3,4]thiadiazine] | 4 | 99.9 ± 11.8 | 99.9 ± 11.8
Sc1nncn1NCC#Cc1ccccc1 [Compound 2a, 4-((3-phenylprop-2-yn-1-yl)amino)-4H-1,2,4-triazole-3-thiol] | >300 | 4.3 ± 1 | 4.3 ± 1
CC(N)C12CC3CC(CC(C3)C1)C2 (stereo not shown) [Rimantadine, reference compound] |  | 64.1 ± 7.2 | 64.1 ± 7.2
Cc1nnc(S)n1N=CC#Cc1ccccc1 [Compound 1b, 5-methyl-4-((3-phenylprop-2-yn-1-ylidene)amino)-4H-1,2,4-triazole-3-thiol] | 5 | 24.8 ± 2.9 | 24.8 ± 2.9
Cc1nnc2n1NC/C(=C/c1ccccc1)S2 [Compound 8b, (Z)-7-benzylidene-3-methyl-6,7-dihydro-5H-[1,2,4]triazolo[3,4-b][1,3,4]thiadiazine] |  | > 1200 | > 1200
CCc1nnc2n1N=C/C(=C/c1ccccc1)S2 [Compound 6c, (Z)-7-benzylidene-3-ethyl-7H-[1,2,4]triazolo[3,4-b][1,3,4]thiadiazine] | 8 | 118 ± 12.7 | 118 ± 12.7
